Paper PMC6919601, “Identification of Plasmodium dipeptidyl aminopeptidase allosteric inhibitors by high throughput screening” (PLoS ONE, 2019)
Several values for one entry are separate records, joined by “and”; a condition that tells them apart may be missing. Equal values may be shown once. Among all 110,000 compounds or so, about 230 (0.21%) showed an effect of 50% or more. The list shows a part of the results.

The compounds below were run against DPAP1 (Plasmodium falciparum, UniProt Q8IIJ9) (assay: primary screen, percent inhibition; read by cleavage of a fluorogenic dipeptide substrate; higher = more effect of the substance).
Chain of DPAP1 (Q8IIJ9 whole entry, looked up): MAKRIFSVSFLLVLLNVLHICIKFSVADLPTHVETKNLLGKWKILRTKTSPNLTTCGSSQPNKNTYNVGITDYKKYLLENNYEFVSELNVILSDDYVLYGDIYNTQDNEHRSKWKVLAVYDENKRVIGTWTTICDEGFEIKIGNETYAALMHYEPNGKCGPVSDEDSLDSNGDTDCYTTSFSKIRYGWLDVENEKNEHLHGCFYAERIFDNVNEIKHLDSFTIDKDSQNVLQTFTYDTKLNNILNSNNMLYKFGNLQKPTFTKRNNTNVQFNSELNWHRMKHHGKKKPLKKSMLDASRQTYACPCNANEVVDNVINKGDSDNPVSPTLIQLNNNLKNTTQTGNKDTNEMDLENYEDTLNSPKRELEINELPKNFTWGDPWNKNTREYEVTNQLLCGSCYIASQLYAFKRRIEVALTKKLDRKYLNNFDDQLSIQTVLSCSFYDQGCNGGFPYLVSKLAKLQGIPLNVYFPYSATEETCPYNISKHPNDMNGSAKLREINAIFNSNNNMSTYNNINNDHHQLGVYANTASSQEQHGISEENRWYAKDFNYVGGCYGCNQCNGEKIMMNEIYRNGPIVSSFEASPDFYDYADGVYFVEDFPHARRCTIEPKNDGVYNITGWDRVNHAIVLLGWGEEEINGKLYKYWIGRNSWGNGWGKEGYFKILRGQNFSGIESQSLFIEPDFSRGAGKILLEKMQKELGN
Parameters: species or system P. falciparum D10 trophozoite lysates; single well
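Further: 30 min substrate incubation versus DMSO and 10 µM JCP410 controls.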

| SMILES | % Inhibition @ 10 uM |
| --- | --- |
| COc1ccc(N(CC(=O)Nc2ccc(C)c(C)c2)S(=O)(=O)c2ccc(NC(C)=O)cc2)cc1 | 2.02% |
| c1ccc2sc(Cc3nn[nH]n3)nc2c1 | 2.28% |
| CC1CCN(c2nc3c(c(=O)n(C)c(=O)n3C)n2Cc2ccc(Cl)c(Cl)c2)CC1 | 3.6% |
| O=C(NCCN1CCOCC1)c1noc2c1CCCC2 | -4.02% |
| CC1(C)CC2=NCN(Cc3ccc4c(c3)OCO4)CC2=C(O)C1 | 0.032% |
| Cc1cc(C(F)F)n2ncc(C(=O)N3CCOCC3)c2n1 | 0.431% |
| COc1ccc(C)cc1N(CC(=O)NCc1ccccc1)S(C)(=O)=O | -1.61% |
| CC1=C(C(=O)Nc2ccc(F)cc2F)C(c2cccs2)C2=C(O)CC(c3ccccc3)CC2=N1 (stereo not shown) | -4.76% |
| CCN1CCN(C(=O)CCn2cnc3onc(-c4ccc(F)cc4)c3c2=O)CC1 | -1.24% |
| CCCn1cnc2cc(NCc3nc4ccccc4n3C)ccc21 | -2.67% |
| COc1ccccc1-c1nc2s/c(=C\c3ccc(OCC(N)=O)cc3)c(=O)n2n1 | 0.561% |
| COc1ccccc1C(=O)N1CCC2(CC1)N=C(c1ccc(C(C)(C)C)cc1)C(=O)N2 | 8.77% |
| CC(=O)c1c(C)[nH]c(C(=O)Nc2nccs2)c1C | -0.499% |
| O[C@]12CCCC[C@@H]1[C@@H](c1ccccc1)NCC2 | 3.32% |
| COc1cccc(CN2C(=O)c3ccccc3C(C(=O)O)C2c2cccc(OC)c2O)c1 (stereo not shown) | -4.9% |
| O=C(c1ccccc1)N1CCCC(C(=O)N2CCC(Cc3ccccc3)CC2)C1 (stereo not shown) | -4.84% |
| O=C(c1ccccc1)C(CN1CCCC1)c1ccccc1 (stereo not shown) | 1.43% |
| O=C(O)c1ccc(N2C(=O)c3ccc(Br)cc3C2=O)cc1O | -3.13% |
| CCOc1ccc(C(=O)NCc2cn3cccc(C)c3n2)cc1 | 4.67% |
| COc1ccc(C2OC(C)CN(C(=O)c3ccc4c(c3)OCO4)O2)cc1 (stereo not shown) | -6.18% |
| CC1(C)CC(=O)c2c(-c3cccc([N+](=O)[O-])c3)coc2C1 | 2.76% |
| CCOc1ccc(/C=C2/C=C(c3ccc(CC)cc3)OC2=O)cc1 | 4.74% |
| COc1ccc(Nc2ncc(C#N)c(Nc3ccccc3)c2C#N)cc1 | 0.67% |
| COc1ccc(-c2nnc(NC(=O)c3ccc(C(=O)c4ccccc4)cc3)s2)c(OC)c1 | 2.49% |
| CC(C)(C)c1ccc(CNC23CN4CN(CN(C4)C2)C3)cc1 | -6.36% |

| SMILES | % Inhibition @ 10 uM |
| --- | --- |
| O=C1C(=O)N2C(=C1C(=O)N1CCOCC1)c1ccccc1CC21CCCCC1 | -1.52% |
| O=C(Nc1ccncc1)C(=O)c1cn(Cc2ccc(Cl)cc2)c2ccccc12 | 3.47% |
| CCCN(CCC)CC/N=c1/c(N2CCN(C(=O)OCC)CC2)c(O)c1=O | -1.44% |
| CCOc1ccc(N2C(=O)c3ccccc3C2=O)c(N)c1 | 0.526% |
| CNC(=O)C1CCCN(S(=O)(=O)N2CCC3(CC2)OCCO3)C1 (stereo not shown) | -5.93% |
| c1ccc(SC2=NN=C(c3ccccc3)Nc3ccccc32)cc1 | 4.12% |
| CCOc1cc(C(=O)Nc2ccccc2Br)cc(OCC)c1OCC | 23.6% |
| Cc1ccc(/C=C(\NC(=O)c2ccccc2)C(=O)NCCc2cccc(F)c2)o1 | 2.46% |
| Cc1ccc(S(=O)(=O)NCc2nnc(N)s2)cc1 | 12% |
| Cc1ccccc1S(=O)Cc1ccc(C(=O)N2CCOCC2)o1 (stereo not shown) | -3.09% |
| Cc1ccc(OCc2nnnn2-c2ccccc2)cc1 | -2.85% |
| CC1=Nc2ncnn2C(c2ccc(OCc3ccccc3Cl)cc2)/C1=C(\O)OC(C)C (stereo not shown) | 2.25% |
| COCCCN(C(=O)Nc1cn(CC(C)C)c(=O)c2ccccc12)C(C)c1ccncc1 (stereo not shown) | 3.6% |
| Cc1ccc(C(=O)N2CC(C)N(C(=O)c3ccc(C)o3)CC2C)o1 (stereo not shown) | -1.42% |
| CC(C(=O)NCCc1ccc(Cl)cc1)n1c(=O)c2cccn2c2cccnc21 (stereo not shown) | -2.39% |
| CCCCCC(=O)NC(CC)C(=O)O (stereo not shown) | -3.66% and -1.77% |
| O=C(Nc1cccc(Cl)c1)Nc1cc(C(F)(F)F)ccc1Cl | 6.08% |
| Cc1ccc(N2CCN(CCCN3C(=O)C4CCCN4C3=O)CC2)cc1 (stereo not shown) | -3.23% |
| CCOc1cccc(N2C(=O)CC(N3CCC(C(N)=O)(N4CCCCC4)CC3)C2=O)c1 (stereo not shown) | 1.27% |
| CCCc1cc(C(=O)NCc2ccc(F)cc2)no1 | -3.77% |
| COc1ccc(/C=C2/SC(=O)N(CC(=O)Nc3ccccc3C)C2=O)cc1O | 6.52% |
| COc1ccc(C2(C(N)=O)CCOCC2)cc1 | -7.45% |
| CCOc1cc(/C=C2/SC(=O)NC2=O)ccc1O | 0.343% |
| O=S(=O)(c1ccccc1)N1CCC(N2CCCCC2)CC1 | -2.85% |
